# Source: PubChem BioAssay AID1768 (National Center for Advancing Translational Sciences (NCATS), 2009)
# Hit rate of the full screen: of about 270,000 compounds, about 620 (0.23%) were called active. The inconclusive results got no clear call from the source; some entries with a clear call stand among them for comparison. Calls follow the shape of the dose curve; as a rule, active = well fitted inhibition curve with a large enough effect in the polarisation, with a control signal flat (not every such curve was filed as active); inconclusive = small, poorly fitted or top-dose-only effect, or effect the other way, or a change in a side signal; inactive = no such curve, though single readings can be large or run the other way; the % refers to the polarisation. Potencies beside an inconclusive call are fits to weak or partial responses and may not hold up. “Side channel” marks fits to a control or component signal instead of the main read-out.
# Molecular target: Menin (Homo sapiens) (UniProt O00255)
# Sequence of UniProt O00255 (O00255 whole entry, looked up): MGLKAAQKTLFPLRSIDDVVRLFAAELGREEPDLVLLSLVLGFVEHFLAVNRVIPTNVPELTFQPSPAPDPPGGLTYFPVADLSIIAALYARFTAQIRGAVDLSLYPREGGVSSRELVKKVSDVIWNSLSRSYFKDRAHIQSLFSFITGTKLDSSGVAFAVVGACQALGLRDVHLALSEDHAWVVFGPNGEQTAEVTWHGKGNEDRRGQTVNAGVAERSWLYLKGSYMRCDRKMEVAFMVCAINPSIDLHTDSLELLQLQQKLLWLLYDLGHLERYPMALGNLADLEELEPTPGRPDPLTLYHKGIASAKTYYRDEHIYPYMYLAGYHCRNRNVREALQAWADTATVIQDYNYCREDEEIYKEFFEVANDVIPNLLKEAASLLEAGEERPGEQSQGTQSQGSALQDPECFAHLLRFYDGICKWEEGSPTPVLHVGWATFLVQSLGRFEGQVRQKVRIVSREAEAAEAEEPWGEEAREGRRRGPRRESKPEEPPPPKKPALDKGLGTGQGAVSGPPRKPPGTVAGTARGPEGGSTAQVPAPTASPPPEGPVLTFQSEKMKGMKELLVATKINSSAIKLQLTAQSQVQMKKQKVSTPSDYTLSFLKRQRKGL
# Test: qHTS Assay for Inhibitors Targeting the Menin-MLL Interaction in MLL Related Leukemias: Competition With Texas Red Labeled MLL-derived Mutant Peptide; as to FP activity change, negative = inhibition: % of control where 0% means no effect
# Details: fluorescence polarization; FP activity change, negative = inhibition: at 61.6 µM (top of the series)
# Potency is read from the fitted curve at half-maximal effect; tags tell the direction and shape of the fitted curve or compound fluorescence and quenching.
Structure (SMILES),Potency,"FP activity change, negative = inhibition"
CS(=O)(=O)c1ccc(-c2cccc(NC(=O)COc3ccccc3)c2)nn1,"inconclusive: 39.8 µM [fluorescent, side channel, single point]",
COc1ccc(S(=O)(=O)N(C)C)cc1NC(C)C(=O)Nc1cccc(C#N)c1 (stereo not given),"inconclusive: 39.8 µM [quencher, side channel, single point]",
CCN(Cc1ccccc1)C(=O)c1oc2ccc(C)cc2c1C,"inconclusive: 20 µM [fluorescent, side channel, partial curve]",
Cc1ccc2c(c1C)NC(C)CC2C (stereo not given),"inconclusive: 3.16 µM [inhibitor, partial curve]",
CC(C)CNC(=O)COC(=O)c1c2c(nc3ccccc13)/C(=C/c1cccs1)CC2,"inconclusive: 12.6 µM [quencher, side channel, partial curve]",
COC(=O)CC1c2ccccc2C=C(/C=C/c2ccc3c(c2)OCO3)N1C(=O)OC (stereo not given),,inactive: -14% [at 11.7 µM]
O=C(NNC(=S)NC(=O)c1cccc([N+](=O)[O-])c1)c1ccc(Br)cc1,"inconclusive: 22.4 µM [quencher, side channel, partial curve]",
COc1cccc(-c2nc(-c3ccccc3)c(-c3ccccc3)[nH]2)c1OCC(=O)O,"inconclusive: 17.8 µM [quencher, side channel, partial curve]",
O=C(Nc1ccc(Cl)c(Cl)c1)Nc1ccc([N+](=O)[O-])cn1,"inconclusive: 17.8 µM [quencher, side channel, partial curve]",
COc1ccc(C(CC(=O)O)NC(=O)Cc2ccccc2)cc1OC (stereo not given),inactive,
O=C(COC(=O)c1ccccc1OCc1ccccc1Cl)NC1CC1,"inconclusive: 8.91 µM [inhibitor, full curve]",
O=S(=O)(c1ccc(NC(=S)NCCc2ccccc2)cc1)N1CCOCC1,"inconclusive: 25.1 µM [quencher, side channel, partial curve]",
CC(NCc1ccncc1)C12CC3CC(CC(C3)C1)C2 (stereo not given),"inconclusive: 25.1 µM [fluorescent, side channel, partial curve, poor fit]",
Cc1cc(F)ccc1S(=O)(=O)Nc1ccccc1C(=O)Nc1ccc2[nH]c(=O)[nH]c2c1,"inconclusive: 11.2 µM [quencher, side channel, partial curve]",
Cc1ccccc1C(=O)N1CCN(c2ccc(NC(=O)c3ccc([N+](=O)[O-])o3)cc2)CC1,"inconclusive: 35.5 µM [quencher, side channel, single point]",
